17 molecules from patent US11420968B2 (priority 2018, dated 2022) can be followed below.

Read-outs that look alike come from different tables or passages of the source. Bounds are passed on as bounds.

For assay [1], the system named is RS4;11 cells. In words: cells. As to conditions: Homo sapiens, RS4-11, 48 h.
Assay [2] concerns Molt-4 cells. In words: cells. As to conditions: Homo sapiens, MOLT-4, read-out: Cellular activity (IC50, nM) Molt-4.
The mark [3] stands for this setting: read-out: Cellular activity (IC50, nM) RS4, 11.
The mark [4] stands for this setting: read-out: Cellular activity (IC50, nM) RS4;11.

In general, IC50 refers to the concentration needed to halve the response being measured. As for `CN(C)c1ccccc1C1CCCN1c1ccc(-c2ccc(C(=O)NS(=O)(=O)c3ccc(NCC4CCOCC4)c([N+](=O)[O-])c3)c(Oc3cnc4[nH]ccc4c3)c2)cc1` (stereo not shown) [Example A65, 3-((1H-pyrrolo[2,3-b]pyridin-5-yl)oxy)-4′-(2-(2-(dimethylamino)phenyl)pyrrolidin-1-yl)-N-((3-nitro-4-(((tetrahydro-2H-pyran-4-yl)methyl)amino)phenyl)sulfonyl)-[1,1′-biphenyl]-4-carboxamide], the figures for the IC50 in assay [1] (setting [3]) and in assay [2] were 40 nM and 3310 nM, respectively.

As to `O=C(NS(=O)(=O)c1ccc(NCC2CNCCO2)c([N+](=O)[O-])c1)c1ccc(C2=CCC(N3CCCC3c3ccccc3C3CC3)CC2)cc1Oc1cnc2[nH]ccc2c1` (stereo not shown) [Example G27, 3-((1H-pyrrolo[2,3-b]pyridin-5-yl)oxy)-4′-(2-(2-cyclopropylphenyl)pyrrolidin-1-yl)-N-((4-((morpholin-2-ylmethyl)amino)-3-nitrophenyl)sulfonyl)-2′,3′,4′,5′-tetrahydro-[1,1′-biphenyl]-4-carboxamide], the values for the IC50 in assay [1] (setting [3]) and in assay [2] were 118 nM and greater than 10000 nM, respectively.

Regarding `C#CC1CCN(C2CC=C(c3ccc(C(=O)NS(=O)(=O)c4ccc(NCC5CCOCC5)c([N+](=O)[O-])c4)c(Oc4cnc5[nH]ccc5c4)c3)CC2)C1c1ccccc1C1CC1` (stereo not shown) [Example C164, 3-((1H-pyrrolo[2,3-b]pyridin-5-yl)oxy)-4′-(2-(2-cyclopropylphenyl)-3-ethynylpyrrolidin-1-yl)-N-((3-nitro-4-(((tetrahydro-2H-pyran-4-yl)methyl)amino)phenyl)sulfonyl)-2′,3′,4′,5′-tetrahydro-[1,1′-biphenyl]-4-carboxamide], the IC50 came to 141 nM in assay [1] (setting [3]) and 4140 nM in assay [2].

For the molecule `N#CC1CCN(C2CC=C(c3ccc(C(=O)NS(=O)(=O)c4ccc(NCC5CCOCC5)c([N+](=O)[O-])c4)c(Oc4cnc5[nH]ccc5c4)c3)CC2)C1c1ccccc1C1CC1` (stereo not shown) [Example C163, 3-((1H-pyrrolo[2,3-b]pyridin-5-yl)oxy)-4′-(3-cyano-2-(2-cyclopropylphenyl)pyrrolidin-1-yl)-N-((3-nitro-4-(((tetrahydro-2H-pyran-4-yl)methyl)amino)phenyl)sulfonyl)-2′,3′,4′,5′-tetrahydro-[1,1′-biphenyl]-4-carboxamide], the IC50 amounted to 171 nM in assay [1] (setting [3]) and 9050 nM in assay [2].

For `CCc1ccccc1[C@H]1CCCN1c1ccc(-c2ccc(C(=O)NS(=O)(=O)c3ccc(NC[C@H]4CC[C@](C)(O)CC4)c([N+](=O)[O-])c3)c(Oc3cnc4[nH]ccc4c3)c2)cc1` [Example G103, 3-((1H-pyrrolo[2,3-h]pyridin-5-yl)oxy)-4′-((R)-2-(2-ethylphenyl)pyrrolidin-1-yl)-N-((4-((((1r,4r)-4-hydroxy-4-methylcyclohexyl)methyl)amino)-3-nitrophenyl)sulfonyl)-[1,1′-biphenyl]-4-carboxamide], the IC50 in assay [1] (setting [3]) is 58 nM; in assay [2] it was 9590 nM.

On to `CN1CCC(N(C)c2ccccc2[C@H]2CCCN2c2ccc(-c3ccc(C(=O)NS(=O)(=O)c4ccc(NCC5CCOCC5)c([N+](=O)[O-])c4)c(Oc4cnc5[nH]ccc5c4)c3)cc2)C1` (stereo partly drawn) [Example A133, 3-((1H-pyrrolo[2,3-b]pyridin-5-yl)oxy)-4′-((2R)-2-(2-(methyl(1-methylpyrrolidin-3-yl)amino)phenyl)pyrrolidin-1-yl)-N-((3-nitro-4-(((tetrahydro-2H-pyran-4-yl)methyl)amino)phenyl)sulfonyl)-[1,1′-biphenyl]-4-carboxamide], for which the IC50 in assay [1] (setting [4]) was 6.3 nM; in assay [2] it was 5960 nM.

On to `O=C(NS(=O)(=O)c1ccc(NCC2CCOCC2)c([N+](=O)[O-])c1)c1ccc(-c2ccc(N3CCCCC3c3ccccc3C3CC3)cc2)cc1Oc1cnc2[nH]ccc2c1` (stereo not shown) [Example A152, 3-((1H-pyrrolo[2,3-b]pyridin-5-yl)oxy)-4′-(2-(2-cyclopropylphenyl)piperidin-1-yl)-N-((3-nitro-4-(((tetrahydro-2H-pyran-4-yl)methyl)amino)phenyl)sulfonyl)-[1,1′-biphenyl]-4-carboxamide], for which the IC50 in assay [1] (setting [4]) is 214 nM; in assay [2], greater than 10000 nM.

For the molecule `CC1(C)CC(CNc2ccc(S(=O)(=O)NC(=O)c3ccc(N4CCC5(CC4)CC(N4CCC[C@H]4c4ccccc4C4CC4)C5)cc3Oc3cnc4[nH]ccc4c3)cc2[N+](=O)[O-])CC(C)(C)O1` [Example F121, (S)-2-((1H-pyrrolo[2,3-b]pyridin-5-yl)oxy)-4-(2-(2-(2-cyclopropylphenyl)pyrrolidin-1-yl)-7-azaspiro[3.5]nonan-7-yl)-N-((3-nitro-4-(((2,2,6,6-tetramethyltetrahydro-2H-pyran-4-yl)methyl)amino)phenyl)sulfonyl)benzamide], the IC50 worked out at 10 nM in assay [1] (setting [4]) and 4580 nM in assay [2].

For the molecule `O=C(NS(=O)(=O)c1ccc(NCC2CCOCC2)c([N+](=O)[O-])c1)c1ccc(-c2ccc(N3CCCC3c3ccccc3N3CCOCC3)cc2)cc1Oc1cnc2[nH]ccc2c1` (stereo not shown) [Example A122, 3-((1H-pyrrolo[2,3-b]pyridin-5-yl)oxy)-4′-(2-(2-morpholinophenyl)pyrrolidin-1-yl)-N-((3-nitro-4-(((tetrahydro-2H-pyran-4-yl)methyl)amino)phenyl)sulfonyl)-[1,1′-biphenyl]-4-carboxamide], the IC50 in assay [1] (setting [4]) was found to be 48 nM; in assay [2] it was 6920 nM.

For the molecule `CC(=O)N1CCOC(CNc2ccc(S(=O)(=O)NC(=O)c3ccc(C4=CCC(N5CCCC5c5ccccc5C5CC5)CC4)cc3Oc3cnc4[nH]ccc4c3)cc2[N+](=O)[O-])C1` (stereo not shown) [Example G32, 3-((1H-pyrrolo[2,3-b]pyridin-5-yl)oxy)-N-((4-(((4-acetylmorpholin-2-yl)methyl)amino)-3-nitrophenyl)sulfonyl)-4′-(2-(2-cyclopropylphenyl)pyrrolidin-1-yl)-2′,3′,4′,5′-tetrahydro-[1,1′-biphenyl]-4-carboxamide], the IC50 was 123 nM in assay [1] (setting [3]) and greater than 10000 nM in assay [2].

For `CC(C)c1ccccc1CC1CCCN1C1CC=C(c2ccc(C(=O)NS(=O)(=O)c3ccc(NCC4CCOCC4)c([N+](=O)[O-])c3)c(Oc3cnc4[nH]ccc4c3)c2)CC1` (stereo not shown) [Example C184, 3-((1H-pyrrolo[2,3-b]pyridin-5-yl)oxy)-4′-(2-(2-isopropylbenzyl)pyrrolidin-1-yl)-N-((3-nitro-4-(((tetrahydro-2H-pyran-4-yl)methyl)amino)phenyl)sulfonyl)-2′,3′,4′,5′-tetrahydro-[1,1′-biphenyl]-4-carboxamide], the results for the IC50 in assay [1] (setting [3]) and in assay [2] were 226 nM and 7120 nM, respectively.

For the molecule `O=C(NS(=O)(=O)c1ccc(NCC2CCOCC2)c([N+](=O)[O-])c1)c1ccc(C2=CCC(N3CCCC3c3ccccc3-c3ccoc3)CC2)cc1Oc1cnc2[nH]ccc2c1` (stereo not shown) [Example C8, 3-((1H-pyrrolo[2,3-b]pyridin-5-yl)oxy)-4′-(2-(2-(furan-3-yl)phenyl)pyrrolidin-1-yl)-N-((3-nitro-4-(((tetrahydro-2H-pyran-4-yl)methyl)amino)phenyl)sulfonyl)-2′,3′,4′,5′-tetrahydro-[1,1′-biphenyl]-4-carboxamide], the IC50 is 694 nM in assay [1] (setting [3]) and greater than 10000 nM in assay [2].

In the case of `COCc1ccccc1C1CCCN1c1ccc(-c2ccc(C(=O)NS(=O)(=O)c3ccc(NCC4CCOCC4)c([N+](=O)[O-])c3)c(Oc3cnc4[nH]ccc4c3)c2)cc1` (stereo not shown) [Example A128, 3-((1H-pyrrolo[2,3-b]pyridin-5-yl)oxy)-4′-(2-(2-(methoxymethyl)phenyl)pyrrolidin-1-yl)-N-((3-nitro-4-(((tetrahydro-2H-pyran-4-yl)methyl)amino)phenyl)sulfonyl)-[1,1′-biphenyl]-4-carboxamide], the IC50 in assay [1] (setting [4]) was 115 nM; in assay [2], greater than 10000 nM.

For `O=C(NS(=O)(=O)c1ccc(NCC2CCOCC2)c([N+](=O)[O-])c1)c1ccc(C2=CCC(N3CCCC3c3cccnc3)CC2)cc1Oc1cnc2[nH]ccc2c1` (stereo not shown) [Example C5, 3-((1H-pyrrolo[2,3-b]pyridin-5-yl)oxy)-N-((3-nitro-4-(((tetrahydro-2H-pyran-4-yl)methyl)amino)phenyl)sulfonyl)-4′-(2-(pyridin-3-yl)pyrrolidin-1-yl)-2′,3′,4′,5′-tetrahydro-[1,1′-biphenyl]-4-carboxamide], the results for the IC50 in assay [1] (setting [3]) and in assay [2] were 4260 nM and greater than 10000 nM, respectively.

In the case of `O=C(NS(=O)(=O)c1ccc(NCC2CCOCC2)c([N+](=O)[O-])c1)c1ccc(C2=CCC(N3CCC3c3ccccc3)CC2)cc1Oc1cnc2[nH]ccc2c1` (stereo not shown) [Example C99, 3-((1H-pyrrolo[2,3-b]pyridin-5-yl)oxy)-N-((3-nitro-4-(((tetrahydro-2H-pyran-4-yl)methyl)amino)phenyl)sulfonyl)-4′-(2-phenylazetidin-1-yl)-2′,3′,4′,5′-tetrahydro-[1,1′-biphenyl]-4-carboxamide], the IC50 was 645 nM in assay [1] (setting [3]) and greater than 10000 nM in assay [2].

For the molecule `O=C(NS(=O)(=O)c1ccc(OCC2CCC3(CC2)COC3)c([N+](=O)[O-])c1)c1ccc(C2=CCC(N3CCCC3c3ccccc3C3CC3)CC2)cc1Oc1cnc2[nH]ccc2c1` (stereo not shown) [Example G12, 3-((1H-pyrrolo[2,3-b]pyridin-5-yl)oxy)-N-((4-((2-oxaspiro[3.5]nonan-7-yl)methoxy)-3-nitrophenyl)sulfonyl)-4′-(2-(2-cyclopropylphenyl)pyrrolidin-1-yl)-2′,3′,4′,5′-tetrahydro-[1,1′-biphenyl]-4-carboxamide], the values for the IC50 in assay [1] (setting [3]) and in assay [2] were 51 nM and greater than 10000 nM, respectively.

With `CC(C)c1ccccc1[C@@H]1CCCN1C1CC2(C1)CN(c1ccc(C(=O)NS(=O)(=O)c3ccc(NC[C@H]4COCCO4)c([N+](=O)[O-])c3)c(Oc3cnc4[nH]ccc4c3)c1)C2` [Example F110, N-((4-((((S) 1,4-dioxan-2-yl)methyl)amino)-3-nitrophenyl)sulfonyl)-2-((1H-pyrrolo[2,3-b]pyridin-5-yl)oxy)-4(6-((S)-2-(2-isopropylphenyl)pyrrolidin-1-yl)-2-azaspiro[3.3]heptan-2-yl)benzamide], the IC50 came out at 2.7 nM in assay [1] (setting [4]) and 2560 nM in assay [2].
